{
  "source": "PubChem BioAssay AID662",
  "about": "(National Center for Advancing Translational Sciences (NCATS), 2007)",
  "note": "Hit rate of the full screen: of about 71,000 compounds, about 1,800 (2.5%) were called active. Inconclusive results, whose numbers are uncertain, are shown with a selection of clear calls. Calls come from the whole dose curve; as a rule, active = well fitted activation curve with a large enough effect in the signal ratio, with a control signal flat (not every such curve was filed as active); inconclusive = small, poorly fitted or top-dose-only effect, or effect the other way, or a change in a side signal; inactive = flat fitted curve, though single readings scatter; the % refers to the signal ratio. A potency beside an inconclusive call is a rough fit, not a confirmed value. Potency is the fitted concentration of half-maximal effect; tags give direction and shape of the fitted curve.",
  "data": [
    {"experiment": "Cell signaling CRE-BLA (Fsk stim); for activity change, negative = inhibition: % of control where 0% means no effect", "conditions": "CHO CRE-bla reporter (cAMP response element driving beta-lactamase), forskolin EC10, beta-lactamase ratio; activity change, negative = inhibition: at 38.2 µM (top of the series) unless noted", "method_in_brief": "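CRE-bla CHO reporter cells treated with compound titration plus EC10 NKH 477 (water-soluble forskolin), incubated 3 h at 37 °C; CCF4 loading 2 h at room temperature, 460/530 nm emission ratio read, AC50 values derived for positive or negative modulators.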", "values": [
      {"compound": "Cc1ccc2nc3ccc(N4CCCC4)nn3c(=O)c2c1", "Potency": "inconclusive: 10 µM [rising, single point]"},
      {"compound": "Cc1ccc(NC(=O)Cc2cn3ccsc3n2)nc1", "Potency": "inactive"},
      {"compound": "CC(=O)c1cccc(NC(=O)Nc2cnn(Cc3ccc(F)cc3)c2)c1", "activity change, negative = inhibition": "inconclusive: 4.43%"},
      {"compound": "COc1ccc(N2CSC3=C(C#N)C(c4ccc(OC)c(OC)c4)CC(=O)N3C2)c(OC)c1", "note": "(centres undefined)", "Potency": "inconclusive: 12.6 µM [rising, partial curve]"},
      {"compound": "C/C(NCCCn1ccnc1)=C(\\C#N)C(N)=O", "Potency": "inactive"},
      {"compound": "CC1(C)Cc2c(C#N)c(NC3CCCCC3)nc(-c3ccco3)c2CO1", "Potency": "active: 3.16 µM"},
      {"compound": "c1ccc(CNc2cc(-c3ccoc3)ncn2)cc1", "Potency": "inconclusive: 20 µM [falling, partial curve]"},
      {"compound": "CCC(C)Sc1nc2c(c(=O)[nH]c(=O)n2C)n1Cc1ccc(Cl)cc1", "note": "(centres undefined)", "Potency": "active: 7.94 µM"},
      {"compound": "Cc1ccc(-c2csc(N3CCC(NS(=O)(=O)c4ccc5c(c4)OCCO5)CC3)n2)cc1", "activity change, negative = inhibition": "inconclusive: 20.2% [cytotoxic]"},
      {"compound": "O=C(CCSCc1ccccc1F)N1CCN(c2ccccn2)CC1", "Potency": "inconclusive: 0.0501 µM [falling, full curve, poor fit]"},
      {"compound": "Cc1cc(C)c2cc(CN(Cc3ccc4c(c3)OCO4)Cc3nnnn3Cc3ccco3)c(=O)[nH]c2c1", "Potency": "inactive"},
      {"compound": "O=[N+]([O-])/C=C\\c1cc2ccccc2[nH]1", "activity change, negative = inhibition": "inactive: -3.47% [at 7.6 µM]"},
      {"compound": "Cc1cccc2sc(NC(=O)CNS(=O)(=O)c3ccc(Br)s3)nc12", "activity change, negative = inhibition": "inconclusive: -12.2%"},
      {"compound": "O=C(OCCO)c1cc(Cl)c(C(=O)OCCO)cc1Cl", "Potency": "inactive"},
      {"compound": "COc1cc(C2c3c(oc4c(C)cc(C)cc4c3=O)C(=O)N2Cc2cccnc2)ccc1O", "note": "(centres undefined)", "Potency": "inconclusive: 2.51 µM [rising, full curve, poor fit]"},
      {"compound": "O=c1cnc2cnc(Oc3ccccc3)nc2n1Cc1cccs1", "Potency": "inactive"},
      {"compound": "COc1cccc(C(=O)N2CCN=C2SCc2cccnc2)c1OC", "Potency": "inactive"},
      {"compound": "COc1cccc(CN2CCN(CC(=O)Nc3ccccc3Cl)CC2)c1", "activity change, negative = inhibition": "inconclusive: -16.1%"},
      {"compound": "C=CCn1c(CCNC(=O)c2cccs2)nnc1SCC(=O)Nc1cccc(C(C)=O)c1", "Potency": "inconclusive: 15.8 µM [rising, single point]"},
      {"compound": "O=C(Nc1ccncc1)c1c(F)cccc1F", "Potency": "inconclusive: 3.98 µM [falling, partial curve]"},
      {"compound": "COCCOc1ccc(C(F)(F)F)cc1NC(=O)COC(=O)c1c(C)noc1C", "Potency": "inconclusive: 20 µM [rising, single point]"},
      {"compound": "CCOc1ccc2[nH]c(C)c(CN3CCCCC3)c(=O)c2c1", "activity change, negative = inhibition": "inconclusive: -1.1%"},
      {"compound": "Cc1cc(=O)oc2cc(OC(C)C(=O)Nc3nccs3)ccc12", "note": "(centres undefined)", "Potency": "inactive"},
      {"compound": "COc1cccc(NC(=O)Cn2c(SCC(=O)N3CCOCC3)nc3ccccc32)c1", "Potency": "inactive"},
      {"compound": "COc1ccc(-c2nnc3sc(C(C)N4C(=O)c5ccccc5C4=O)nn23)cc1", "note": "(centres undefined)", "Potency": "active: 10 µM"},
      {"compound": "COc1ccc(Cl)cc1NC(=O)CSc1nc(N2CCCCC2)nc(N2CCCCC2)n1", "Potency": "inactive"},
      {"compound": "Cc1cccc(CNc2cc(-c3cccnc3)ncn2)c1", "Potency": "inconclusive: 12.6 µM [rising, partial curve]"},
      {"compound": "CCOC(=O)N1CCN(C(=O)CC(=O)Nc2ccc3nc4n(c(=O)c3c2)CCCCC4)CC1", "Potency": "inactive"},
      {"compound": "COc1ccccc1-c1cc(C(=O)Nc2cccnc2)no1", "Potency": "inconclusive: 12.6 µM [rising, single point]"},
      {"compound": "FC(F)C(F)(F)C1=CC(c2ccccc2)=NCCN1", "Potency": "inactive"},
      {"compound": "O=C1CC(c2cccc(Cl)c2)CC(O)=C1C=NCCCO", "note": "(centres undefined)", "Potency": "inactive"},
      {"compound": "OCCSc1nncn1/N=C/c1c[nH]c2ccccc12", "Potency": "inactive"},
      {"compound": "COC(=O)c1cc(OC)c(OCc2cc(C(=O)OC)oc2C)c(OC)c1", "Potency": "inactive"},
      {"compound": "COc1ccc(-c2cc(C(=O)NCCN3CCOCC3)c3ccccc3n2)cc1", "activity change, negative = inhibition": "inconclusive: 20.8%"},
      {"compound": "COc1ccc(Oc2ncc3nc(C)c(=O)n(Cc4cccc(OC)c4)c3n2)cc1", "Potency": "active: 3.98 µM"},
      {"compound": "Cn1c(=O)c2c(SCc3cccnc3)nc(CC(C)(C)C)nc2n(C)c1=O", "Potency": "inconclusive: 2 µM [rising, full curve, poor fit]"},
      {"compound": "CC(C)C(=O)NC(C)C(c1cccs1)N1CCOCC1", "note": "(centres undefined)", "Potency": "inconclusive: 3.98 µM [rising, single point]"},
      {"compound": "COc1ccc2[nH]cc(C(=O)N3CCCCC3)c(=O)c2c1", "Potency": "inactive"},
      {"compound": "O=C(CSc1nnc(-c2ccc(Cl)cc2)n1Cc1ccco1)Nc1ccc2c(c1)OCCO2", "activity change, negative = inhibition": "inconclusive: -14.4%"},
      {"compound": "Cc1ccc(-c2csc(/C(C#N)=C(\\O)CN3CCN(C(=O)c4ccco4)CC3)n2)cc1", "activity change, negative = inhibition": "inconclusive: -8.16%"},
      {"compound": "CS(=O)(=O)N1CCC[C@@]2(CCN(c3ccccc3)C2)C1", "Potency": "inactive"},
      {"compound": "CN1CCN(c2ccnc(-c3cccnc3)n2)CC1", "Potency": "inactive"},
      {"compound": "Cc1cccc(-c2cc3nc4c(c(N5CCOCC5)n3n2)CCCC4)c1", "Potency": "active: 2.51 µM"},
      {"compound": "CC(C)(C)NC(=O)Cn1nnc(-c2ccc(Cl)cc2)n1", "activity change, negative = inhibition": "inconclusive: -4.75%"},
      {"compound": "O=c1oc2c(CN3CCOCC3)c(O)ccc2c2c1CCCC2", "Potency": "active: 10 µM"},
      {"compound": "CC(=O)N1C=CN(C(C)=O)C(c2cn(C)c3ccccc23)C1c1cn(C)c2ccccc12", "note": "(centres undefined)", "Potency": "inconclusive: 1 µM [falling, single point]"},
      {"compound": "O=C(NC(=O)c1cccc(OC(F)(F)C(F)F)c1)OC1CCS(=O)(=O)C1", "note": "(centres undefined)", "Potency": "inactive"},
      {"compound": "Nc1nc(-c2ccc3c(c2)CCCC3)cs1", "Potency": "inactive"},
      {"compound": "CC1(C)OC(=O)C2(Cc3ccccc3N3CCCCC32)C(=O)O1", "note": "(centres undefined)", "Potency": "inconclusive: 3.98 µM [rising, partial curve]"},
      {"compound": "Cc1csc2c(=O)n3c(nc12)CCCCC3", "Potency": "inconclusive: 10 µM [rising, partial curve]"},
      {"compound": "CCNc1nc(NCc2ccccc2)nc(Oc2ccc(=O)[nH]n2)n1", "activity change, negative = inhibition": "inconclusive: 20.3%"},
      {"compound": "COc1cccc(CN2CCCN(S(=O)(=O)c3ccc(Br)cc3)CC2)c1", "activity change, negative = inhibition": "inconclusive: 1.59%"},
      {"compound": "O=C(Nc1cccc(-c2cnc3ccccc3n2)c1)c1ccco1", "Potency": "inconclusive: 3.16 µM [rising, partial curve]"},
      {"compound": "Cc1ccc(S(=O)(=O)N2CCCCC2C(=O)N2CCN(Cc3ccccc3)CC2)cc1", "note": "(centres undefined)", "activity change, negative = inhibition": "inconclusive: -4.03%"}
    ]}
  ]
}
